PMC11103113, “Evidence for dual targeting control of Arabidopsis 6-phosphogluconate dehydrogenase isoforms by N-terminal phosphorylation” (Journal of Experimental Botany, 2024)
No constants are given. Whether binding was seen depends on the method and setting. Tags and fused reporters may be left off the sequences shown.

Key:
[1] = molecular target: His-PGD2 T6E (Arabidopsis thaliana) (UniProt Q9FWA3); test: semi-native SDS-PAGE with anti-His immunoblot; His-PGD2 variants from cleared E. coli BL21minus extracts, sample buffer without SDS and DTT and without boiling; monomer to dimer
[2] = molecular target: His-PGD2 Δ15 variant (His-PGD2mat) (Arabidopsis thaliana) (UniProt Q9FWA3); test: as above

Row | Binder | binding [1] | binding [2]
1 | His-PGD2 T6E (enzyme, UniProt Q9FWA3 1-486) MAVQPERIGLAGLAVMGQNLALNIAEKGFPISVYNRTTSKVDETVERAKKEGNLPLYGFHDPESFVKSIQKPRVIIMLVKAGSPVDQTIKTLSAYLEKGDCIVDGGNEWYENTERREKAVAENGFLYLGMGVSGGEEGARNGPSMMPGGSYEAYKNIEDIVLKVAAQVRDSGPCVTYIGKGGSGNFVKMVHNGIEYGDMQLIAEAYDVLKSVGKLSNEELHSVFSDWNKGELESFLVEITADIFGIKDDKGDGHLVDKVLDKTGMKGTGKWTVQQAAELSVPAPTIESSLDARFLSGLKDERVQAAKVFKAGGFGDILTDQKVDKKQLVDDVRKALYASKICSYAQGMNLIRAKSIEKGWGLKLGELARIWKGGCIIRAIFLDRIKQAYDRNAELANLLVDPEFAKEIIERQSAWRRVVCLAINSGISTPGMSASLAYFDSYRRERLPANLVQAQRDYFGAHTYERTDVEGSFHTEWFKIARQSKI | no binding | 
2 | His-PGD2 Δ15 variant (His-PGD2mat) (domain or fragment, UniProt Q9FWA3 16-486) MGQNLALNIAEKGFPISVYNRTTSKVDETVERAKKEGNLPLYGFHDPESFVKSIQKPRVIIMLVKAGSPVDQTIKTLSAYLEKGDCIVDGGNEWYENTERREKAVAENGFLYLGMGVSGGEEGARNGPSMMPGGSYEAYKNIEDIVLKVAAQVRDSGPCVTYIGKGGSGNFVKMVHNGIEYGDMQLIAEAYDVLKSVGKLSNEELHSVFSDWNKGELESFLVEITADIFGIKDDKGDGHLVDKVLDKTGMKGTGKWTVQQAAELSVPAPTIESSLDARFLSGLKDERVQAAKVFKAGGFGDILTDQKVDKKQLVDDVRKALYASKICSYAQGMNLIRAKSIEKGWGLKLGELARIWKGGCIIRAIFLDRIKQAYDRNAELANLLVDPEFAKEIIERQSAWRRVVCLAINSGISTPGMSASLAYFDSYRRERLPANLVQAQRDYFGAHTYERTDVEGSFHTEWFKIARQSKI |  | no binding
